The full ranking holds about 13,000 compounds; the median of “IFI” is about 4, and the highest 2% start at about 17. Some of the results follow.

The nature of the experiment: GSK_TCMDC: Inhibition Frequency Index (IFI). The number of non-kinase HTS assays where a compound showed > 50 % inhibition, expressed as a percentage of the number of such assays in which the compound was tested (-0 is zero). Type of experiment: functional.
`O=C(Nc1cccc(-c2cccc(-c3nc4cc(C(F)(F)F)ccc4[nH]3)c2)c1)c1cccnc1` showed an IFI of 4.59%.
Consider `CCN(CCS(C)(=O)=O)Cc1ccc(-c2ccc3ncnc(Nc4ccc(OCc5cccc(F)c5)c(Cl)c4)c3c2)o1`, for which the IFI is 2.1%.
Regarding `O=C(Nc1ccc(-c2ccc(-c3nc4cc(C(F)(F)F)ccc4[nH]3)s2)cc1)c1ccoc1`, the IFI turned out to be 8.04%.
With `CCCc1cc(Cc2cnc(N)nc2N)cc(CCC)c1OCCCC(=O)OCC`, the IFI is 12.1%.
The figure for `Cc1cccc(-c2c(C)nc(N)nc2N)c1` is 1.6%; for `O=C(NC1CCN(CCC[C@]2(c3ccc(Cl)c(Cl)c3)CCCN(C(=O)c3ccccc3)C2)CC1)c1ccc(Cl)cc1` it is 16.8%.
The figure for `O=C(NCCc1ccccc1)N(Cc1cccc(-c2ccc(CNCCc3ccccc3)cc2)c1)C1CCN(Cc2ccccc2)CC1` is 9.35%.
The figure for `COc1ccc(C(O)CNC(C)CCc2ccc(F)cc2)cc1C(F)(F)F` (centres undefined) is 5.34%.
As to `Fc1ccc2[nH]c(-c3cccc(-c4ccc(CNCc5cnn(-c6ccccc6)n5)cc4)c3)nc2c1`, the IFI is 3.28%.
Compound `COc1ccc(C2=C(Nc3ccc4oc5ccccc5c4c3)c3ccccc3C2=O)cc1` had an IFI of 1.48%.
The figure for `COc1cc(NCC2(CNCc3cn(Cc4ccccc4)c4ccccc34)CCCCC2)nc2ccccc12` is 11.2%.
As for `NS(=O)(=O)c1cccc(Br)c1`, the IFI was 1.49%.
Take `CC(C)Cc1cnc2nc(N)nc(N)c2c1`: the IFI was found to be 1.45%.
The figure for `O=C(Nc1ccsc1)Nc1cccc(-c2cccc(-c3nc4cc(C(F)(F)F)ccc4[nH]3)c2)c1` is 8.08%; for `O=C(NCCCN1CCC(N2CCCCC2)CC1)c1ccc(N2CCOc3ccccc32)s1` it is 11.1%; for `CNCCNCc1cccc(-c2ccc(-c3nc4cc(C(F)(F)F)ccc4[nH]3)s2)c1` it is 8%.
On to `COc1ccc(O)cc1/C=N/Nc1ccnc2cc(Cl)ccc12`, for which the IFI came to 0.74%.
`COc1ccc(CCNC(=O)c2cc(C)ccc2O)cc1-c1ccc(C(C)(C)C)cc1` had an IFI of 2.16%.
The figure for `O=C(NCCCCN1CCN(CC=Cc2ccccc2)CC1)c1ccc(NC(=O)c2cc(Cl)cc(Cl)c2)cc1` is 5.22%.
The same measure for `CC(=O)c1sc(Cc2nc3ccccc3s2)nc1C`: 3.57%; for `O=C(Nc1ccc2c(c1)CCN2C1CCN(Cc2ccc(O)cc2)C1)c1ccco1` (centres undefined): -0%; for `CCOC(=O)N/N=C/[C@H](CCc1ccccc1)NC(=O)[C@H](CC(C)C)NC(=O)c1cc2cccc(OC)c2o1`: 4.55%.
As for `CCCCn1c(Sc2ccc(C#N)c([N+](=O)[O-])c2)nnc1-c1ccc(OC)cc1`, the IFI amounted to 2.82%.
The same measure for `Cc1cc(N[C@@H](CC(C)C)C(=O)Nc2ccccc2)nc(NCCc2ccc(F)cc2)n1`: 15.9%.
The same measure for `CC(C)c1sc(N2CCN(C)CC2)nc1C(=O)NCCc1cccc(Cl)c1`: 6%; for `Nc1ncc(OC2CCCCC2)c(N)n1`: 1.41%.
For `OC1CCC(Nc2ccc3ncc(-c4ccc(Cl)cc4)n3n2)CC1` (centres undefined), the IFI came to 9.02%.
The same measure for `O=C(Nc1ccc(Br)c(Cl)c1)c1cc([N+](=O)[O-])cc2cn[nH]c12`: 4.2%.
In the case of `CN(Cc1ccc(NC(=O)NC2CCN(C(=O)/C=C/c3ccc(Cl)c(Cl)c3)CC2)cc1)C1CCOCC1`, the IFI amounted to 5%.
The figure for `Cc1cccc(C)c1/N=C1\NC(=S)N(c2cccc(Cl)c2)C12CCC(C(C)(C)C)CC2` (centres undefined) is 0.72%; for `O=C(Nc1cccc(-c2ccc(-c3nc4cc(F)ccc4[nH]3)cc2)c1)c1csnn1` it is 5.41%.
The figure for `O=C(NCCCc1ccccc1)c1csc(C2CCCN(C(=O)c3ccc(O)c(-c4ccccc4)c3)C2)n1` (centres undefined) is 3.01%.
The same measure for `O=C(C=Cc1ccc(Br)cc1)N1CCC(CCN2CCC(c3c[nH]c4ccccc34)CC2)CC1`: 6.52%; for `ON=C1CCc2cc(-c3cc(-c4ccc(OC5CCNCC5)cc4)oc3-c3ccncc3)ccc21`: 7.69%.
In turn, `O=C(N[C@H]1CCN(CCc2ccc(O[C@H]3CCNC3)cc2)C1)c1ccc(Cl)c(Cl)c1` showed an IFI of 4.76%.
The compound `c1ccc(Oc2ccc(Nc3ccnc4cc(-c5ccc(CN6CCNCC6)o5)ccc34)cc2)nc1` showed an IFI of 7.97%.
With `CCC(C)CC(=O)Nc1ccc(OC)c(S(=O)(=O)N[C@@H]2CCN(C#N)C2)c1` (some centres undefined), the IFI is -0%.
The figure for `O=C(CCn1c2ccccc2c2ccccc21)NN=Cc1ccco1` is 3.45%; for `NOCCCCOc1ccc(Br)cc1` it is 0.71%; for `Nc1c(Cl)cc(C(O)CNCCCCCCCCCc2ccccn2)cc1Cl` (centres undefined) it is 4.62%.
On to `C[C@@H]1CN(C(c2cccc(O)c2)c2cccc(C(=O)N(C)c3cccc(F)c3)c2)[C@@H](C)CN1C(c1cccc(O)c1)c1cccc(C(=O)N(C)c2cccc(F)c2)c1` (some centres undefined), for which the IFI stood at 6.52%.
The same measure for `Cc1ccccc1C1CCN(C2CCC(NC(=O)/C=C/c3cccc(Cl)c3F)CC2)CC1` (centres undefined): 13.3%; for `CCCC(C)Nc1nc(C)cc(N[C@@H](Cc2ccccc2)C(=O)NCc2cccc(F)c2)n1` (some centres undefined): 9.09%.
The figure for `FC(F)(F)c1ccccc1OCc1cc(-c2ccncc2)c(COc2ccccc2C(F)(F)F)cc1C1=CCNCC1` is 10.6%; for `Cc1[nH]c(C)c(-c2ccc(Br)cc2)c(=O)c1Cl` it is 0.91%; for `Cc1cccc2nc(-c3ccc(-c4ccc(CNCCCN5CCCC5=O)cc4)cc3)[nH]c12` it is 3.88%.
The same measure for `CN(Cc1cccc(O)c1)C1CCCN(c2cc(NC(=O)c3ccc(F)cc3)ccn2)C1` (centres undefined): 5%; for `CN=C(N)c1ccc(NC(=O)C=Cc2ccc(C(=O)Nc3ccc(C(N)=NC)cc3)cc2)cc1`: 10.3%; for `Nc1ncnc2occ(-c3ccc(NC(=O)Nc4cc(C(F)(F)F)ccc4F)cc3)c12`: 7.25%.
As to `CCn1c(-c2nonc2N)nc2c(-c3cccc(NC(=O)Nc4ccccc4OC)c3)ncc(OCCCN)c21`, the IFI stood at 20.5%.
For the compound `O=C(CCCCCNC(=O)c1ccc(O)c(-c2ccc(Cl)c(Cl)c2)c1)NCc1cccc2ccccc12`, the IFI stood at 0.74%.
The figure for `CC(=O)Nc1ccc(C2NC(=O)NC(c3ccccc3)=C2c2nc3ccccc3s2)cc1` (centres undefined) is 0%.
Compound `Cc1cc(N2CCN(CC3CCN(C)CC3)CC2)nc(Nc2ccc(Cl)cc2)n1` registered an IFI of 3.57%.
The same measure for `Cc1ccc(CNC(=O)c2cc3c(=O)n4ccccc4nc3n(CCCN3CCOCC3)c2=N)cc1`: 2.15%; for `CCN(CC)CCNC(=O)/C(=C/C=C/c1cc2cc(Cl)c(Cl)cc2[nH]1)OC`: 7.63%.
The same measure for `CC1CCC(NCc2ccc3c(CNC4CCC(C)CC4)c(O)ccc3c2O)CC1` (centres undefined): 5.07%; for `O=[N+]([O-])c1cccc(-c2nc(-c3ccc(Br)cc3)[nH]c2-c2ccc(Br)cc2)c1`: 0%.
Turning to `CCOc1cc(C)ccc1N(C1CCN(CCCCNC(=O)c2ccc(-c3ccc(C(F)(F)F)cc3)cc2)CC1)S(=O)(=O)c1ccccc1`, the IFI came out at 2.92%.
The same measure for `CCCCCCCc1ccc(-c2c(C)[nH]c(C)c(Cl)c2=O)cn1`: 1.83%.
The same measure for `N#Cc1cccc(NC(=O)NC2CCN(CCCCCNC(=O)/C=C/c3ccc(Cl)c(Cl)c3)CC2)c1`: 5.37%; for `CNC(=O)c1cc(F)c(F)cc1Nc1nc(Nc2cccc(CS(C)(=O)=O)c2)ncc1Cl`: 3.85%.
The same measure for `Cc1ccc(Cn2ncc(N3CCNCC3)c(Cl)c2=O)cc1NC(=O)Nc1ccc(-c2ccccc2)cc1`: 4.2%.
`CCN1CCC(N(Cc2ccc(-c3ccc(C(F)(F)F)cc3)cc2)C(=O)Cn2c(CCc3cccc(F)c3F)cc(=O)c3ccc(OCc4ccccc4)cc32)CC1` came in with an IFI of 6.43%.
The same measure for `FC(F)(F)c1ccc(NC(=S)N2CCC(CCN3CCC(c4c[nH]c5ccccc45)CC3)CC2)cc1`: 6.47%; for `CCCCCCCCn1ccc(=N)cc1`: 5.59%; for `CCCC(CNC(=O)c1cc2c(Cl)cc(Cl)cc2[nH]1)CNc1cc(=O)c2ccccc2[nH]1` (centres undefined): 7.69%.
The figure for `CN(N=Cc1ccccc1)C(=N)NCCCC#Cc1cccc(CN2CCCC2)c1` is 4.23%; for `CC(C)C[C@@H](NC(=O)OC(C)(C)C)C(=O)Nc1ccc(Cc2ccc(NC(=O)[C@@H](CC(C)C)NC(=O)OC(C)(C)C)cc2)cc1` it is -0%.
Turning to `CCN(CC)Cc1ccc2c(=O)cc(CCc3cccc(F)c3F)n(CC(=O)N(Cc3ccc(-c4ccc(C(F)(F)F)cc4)cc3)C(C)C)c2c1`, the IFI is 10.3%.
`CCCc1cc(Cc2cnc(N)nc2N)cc2c1OC(C)C2C` (centres undefined) returned an IFI of 5.26%.
The same measure for `O=C(Nc1ccc(Cl)c(Cl)c1)N1CCC(NCc2cccc([N+](=O)[O-])c2)CC1`: 2.88%; for `Cc1ccc(NC(=O)c2cc(S(=O)(=O)NC(C)(C)C)ccc2C)nc1`: 0%; for `COc1ccc(-c2nccc(NC(=N)NCc3ccccc3)n2)cc1`: 10.7%.
Compound `CCC(=O)N[C@@H]1CN[C@@H](C#Cc2cc3c(Nc4ccc(OCc5cccc(F)c5)c(Cl)c4)ncnc3s2)C1` gave an IFI of 1.75%.
The same measure for `COc1ccccc1C(C)NCC(=O)Nc1cccc(C(=O)Nc2cccc(C(F)(F)F)c2)c1` (centres undefined): 4.08%; for `CC(C)n1c(C2CCN(CC3CCN(C(=O)/C=C/c4ccc(Cl)c(Cl)c4)CC3)CC2)nc2ccccc21`: 2.82%; for `COc1ccc(C=Cc2ccc(-c3c(C)[nH]c(C)c(Cl)c3=O)cc2)cc1OC`: 0.92%.
The same measure for `CCc1cc(Cc2cnc(N)nc2N)cc(CC)c1OC`: 0.76%; for `CC(C)c1ccc(NC(=O)c2ccc(C(=O)NC3CCN(CC4CCCCC4)C3)cc2)cc1` (centres undefined): 8.4%; for `Cc1cc(-c2ccc(Cl)cc2)c2c(N)c(C(=O)Nc3ccc(F)cc3)sc2n1`: 2.96%.
The same measure for `CC(C)(CNC(=O)[C@@H]1CCCCN1)c1nc(-c2ccc(Cl)c(O)c2)c(-c2ccncc2)[nH]1`: 1.56%; for `CC(Oc1ccc(Cl)cc1)C(=O)NCCC1CCN(CCCCCNC(=O)/C=C/c2ccc(Cl)c(Cl)c2)CC1` (centres undefined): 6.99%.
Consider `CCC1N=C(N)N=C(N)N1OCc1ccc(Cl)c(Cl)c1` (centres undefined), for which the IFI amounted to 6.43%.
In turn, `Cc1cccc2nc(-c3cccc(-c4ccc(NC(=O)Cc5ccon5)cc4)c3)[nH]c12` came in with an IFI of 2.7%.
The figure for `O=C(Nc1cccc(CN2CCCN(CC3CCCCC3)CC2)c1)c1cc2ccccc2s1` is 3.85%.
`COc1ccc(NC(=O)Nc2cccc(-c3ccc(-c4nc5cccc(C)c5[nH]4)s3)c2)cc1`: the IFI worked out at 2.02%.
The same measure for `O=C(O)c1ccc2c(c1)N(C(=O)CNCc1ccc(F)cc1)CC(=O)N2CCCc1ccccc1`: 0.75%; for `COc1ccccc1CCNc1nc(C)cc(N[C@@H](Cc2ccccc2)C(=O)NCc2cccs2)n1`: 9.76%.
The compound `CCCCCCN1CCC(NCc2cccc(C(F)(F)F)c2)CC1` yielded an IFI of 3.4%.

The record behind these values is ChEMBL document CHEMBL1157539, “Thousands of chemical starting points for antimalarial lead identification” (Nature, 2010).
